Laboratory results as given in ChEMBL document CHEMBL1961873, “Compounds: GSK PKIS; Assays: Nanosyn kinase panel” (2012).
The entries are a selection whose mix differs from that of the whole data set.

Columns and labels:
[1] = target: Sphingosine kinase 1 (Homo sapiens) (UniProt Q9NYA1); settings: at 1 µM;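 note: mean SPHK1 inhibition value reported from the GSK PKIS kinase panel screen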
[2] = target: T1, Sphingosine kinase 2 (Homo sapiens) (UniProt Q9NRA0); settings: at 0.1 µM
T1 sequence (whole entry): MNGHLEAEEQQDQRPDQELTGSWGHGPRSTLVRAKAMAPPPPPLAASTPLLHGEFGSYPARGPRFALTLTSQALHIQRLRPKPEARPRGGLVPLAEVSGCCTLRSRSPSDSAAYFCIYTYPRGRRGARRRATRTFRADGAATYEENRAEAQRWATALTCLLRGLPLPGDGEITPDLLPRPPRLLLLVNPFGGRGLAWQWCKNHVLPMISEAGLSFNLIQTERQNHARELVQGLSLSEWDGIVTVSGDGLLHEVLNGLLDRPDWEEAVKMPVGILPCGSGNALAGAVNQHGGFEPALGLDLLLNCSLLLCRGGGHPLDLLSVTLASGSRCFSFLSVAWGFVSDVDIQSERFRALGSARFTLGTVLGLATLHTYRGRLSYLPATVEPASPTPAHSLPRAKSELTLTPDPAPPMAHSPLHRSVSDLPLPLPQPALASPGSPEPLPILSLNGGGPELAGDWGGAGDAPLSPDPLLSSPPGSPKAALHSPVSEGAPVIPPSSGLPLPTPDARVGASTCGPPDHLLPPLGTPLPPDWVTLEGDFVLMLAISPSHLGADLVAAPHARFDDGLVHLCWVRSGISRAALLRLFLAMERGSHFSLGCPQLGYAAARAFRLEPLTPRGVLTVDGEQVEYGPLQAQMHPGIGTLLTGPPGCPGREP

[3] = target: T1, Sphingosine kinase 2 (Homo sapiens); settings: at 1 µM
[4] = target: Casein kinase II subunit alpha (Homo sapiens) (UniProt P68400); settings: at 0.1 µM
[5] = target: Casein kinase II subunit alpha (Homo sapiens) (UniProt P68400); settings: at 1 µM
[6] = target: T2, Inhibitor of nuclear factor kappa-B kinase subunit alpha (Homo sapiens) (UniProt O15111); settings: at 0.1 µM
T2 sequence (whole entry): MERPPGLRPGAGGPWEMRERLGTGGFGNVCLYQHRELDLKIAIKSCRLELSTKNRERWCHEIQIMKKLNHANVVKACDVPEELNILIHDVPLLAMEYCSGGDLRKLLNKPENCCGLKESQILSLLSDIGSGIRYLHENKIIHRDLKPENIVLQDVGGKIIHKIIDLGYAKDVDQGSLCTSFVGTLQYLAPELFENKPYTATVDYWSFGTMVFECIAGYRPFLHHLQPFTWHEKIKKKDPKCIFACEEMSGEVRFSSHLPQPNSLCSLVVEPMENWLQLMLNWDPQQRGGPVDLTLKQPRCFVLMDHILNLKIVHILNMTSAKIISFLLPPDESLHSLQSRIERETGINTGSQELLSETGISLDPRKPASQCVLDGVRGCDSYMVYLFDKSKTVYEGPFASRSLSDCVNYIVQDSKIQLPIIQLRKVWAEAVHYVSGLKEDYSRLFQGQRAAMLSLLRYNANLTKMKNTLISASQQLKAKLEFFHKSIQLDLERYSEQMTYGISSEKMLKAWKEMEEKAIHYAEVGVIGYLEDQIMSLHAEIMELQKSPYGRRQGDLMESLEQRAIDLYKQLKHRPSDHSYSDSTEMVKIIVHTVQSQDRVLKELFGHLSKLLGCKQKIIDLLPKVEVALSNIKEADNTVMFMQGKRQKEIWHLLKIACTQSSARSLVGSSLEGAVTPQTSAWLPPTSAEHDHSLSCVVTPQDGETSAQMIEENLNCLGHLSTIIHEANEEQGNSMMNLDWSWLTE

[7] = target: T2, Inhibitor of nuclear factor kappa-B kinase subunit alpha (Homo sapiens); settings: at 1 µM
[8] = target: T3, Inhibitor of nuclear factor kappa-B kinase subunit beta (Homo sapiens) (UniProt O14920); settings: at 0.1 µM
T3 sequence (whole entry): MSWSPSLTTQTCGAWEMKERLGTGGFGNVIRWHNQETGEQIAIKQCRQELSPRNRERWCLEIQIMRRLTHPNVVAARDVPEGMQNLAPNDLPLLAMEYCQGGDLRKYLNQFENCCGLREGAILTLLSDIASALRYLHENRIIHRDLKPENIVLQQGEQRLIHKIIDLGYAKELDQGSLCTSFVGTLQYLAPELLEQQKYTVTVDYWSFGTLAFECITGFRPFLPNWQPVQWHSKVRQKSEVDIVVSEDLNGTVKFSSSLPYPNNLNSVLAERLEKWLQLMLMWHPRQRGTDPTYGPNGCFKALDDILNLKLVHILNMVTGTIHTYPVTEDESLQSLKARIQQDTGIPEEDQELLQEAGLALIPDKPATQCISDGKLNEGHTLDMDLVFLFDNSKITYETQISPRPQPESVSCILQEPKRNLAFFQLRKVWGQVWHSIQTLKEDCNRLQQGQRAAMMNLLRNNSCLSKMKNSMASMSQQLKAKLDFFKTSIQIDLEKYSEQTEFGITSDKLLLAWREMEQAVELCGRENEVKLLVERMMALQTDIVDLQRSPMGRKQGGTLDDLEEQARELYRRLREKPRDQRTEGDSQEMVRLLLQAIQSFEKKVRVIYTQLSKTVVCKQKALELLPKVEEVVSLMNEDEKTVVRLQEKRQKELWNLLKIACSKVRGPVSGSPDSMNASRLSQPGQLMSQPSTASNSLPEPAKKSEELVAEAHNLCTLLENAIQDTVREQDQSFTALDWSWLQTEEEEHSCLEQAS

[9] = target: T3, Inhibitor of nuclear factor kappa-B kinase subunit beta (Homo sapiens); settings: at 1 µM
[10] = target: T4, Inhibitor of nuclear factor kappa-B kinase subunit epsilon (Homo sapiens) (UniProt Q14164); settings: at 0.1 µM;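 note: mean inhibition of IKKε reported, from the GSK PKIS dataset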
T4 sequence (whole entry): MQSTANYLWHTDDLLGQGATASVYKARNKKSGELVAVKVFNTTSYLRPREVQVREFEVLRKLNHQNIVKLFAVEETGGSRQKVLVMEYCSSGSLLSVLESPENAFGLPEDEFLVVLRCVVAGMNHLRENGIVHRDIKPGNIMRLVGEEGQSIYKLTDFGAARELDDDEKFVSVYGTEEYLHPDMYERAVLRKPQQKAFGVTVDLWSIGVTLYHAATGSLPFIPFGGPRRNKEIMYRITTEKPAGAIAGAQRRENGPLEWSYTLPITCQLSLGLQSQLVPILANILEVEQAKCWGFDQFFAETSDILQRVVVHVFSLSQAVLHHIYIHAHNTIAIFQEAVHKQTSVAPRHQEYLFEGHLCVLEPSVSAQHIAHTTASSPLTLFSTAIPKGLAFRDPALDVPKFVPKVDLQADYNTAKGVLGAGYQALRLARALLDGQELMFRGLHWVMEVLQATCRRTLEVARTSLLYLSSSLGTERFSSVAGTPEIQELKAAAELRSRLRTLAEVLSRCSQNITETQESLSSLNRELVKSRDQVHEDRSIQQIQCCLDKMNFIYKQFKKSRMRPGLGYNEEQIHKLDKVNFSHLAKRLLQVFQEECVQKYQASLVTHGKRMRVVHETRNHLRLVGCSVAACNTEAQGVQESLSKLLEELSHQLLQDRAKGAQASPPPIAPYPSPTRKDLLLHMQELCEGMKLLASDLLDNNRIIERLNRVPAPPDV

Chain of UniProt Q9NYA1 (Q9NYA1 whole entry): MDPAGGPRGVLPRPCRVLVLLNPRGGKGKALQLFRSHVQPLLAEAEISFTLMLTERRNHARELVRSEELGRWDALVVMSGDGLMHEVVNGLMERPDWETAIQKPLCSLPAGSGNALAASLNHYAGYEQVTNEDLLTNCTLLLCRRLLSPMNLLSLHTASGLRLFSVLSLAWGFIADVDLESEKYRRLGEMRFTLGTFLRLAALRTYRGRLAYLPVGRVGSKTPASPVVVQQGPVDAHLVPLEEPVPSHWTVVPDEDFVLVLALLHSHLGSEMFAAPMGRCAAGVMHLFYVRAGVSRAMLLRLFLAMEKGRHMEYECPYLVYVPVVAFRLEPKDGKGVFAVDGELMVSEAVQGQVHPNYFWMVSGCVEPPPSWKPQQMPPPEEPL
Chain of UniProt P68400 (P68400 whole entry, looked up): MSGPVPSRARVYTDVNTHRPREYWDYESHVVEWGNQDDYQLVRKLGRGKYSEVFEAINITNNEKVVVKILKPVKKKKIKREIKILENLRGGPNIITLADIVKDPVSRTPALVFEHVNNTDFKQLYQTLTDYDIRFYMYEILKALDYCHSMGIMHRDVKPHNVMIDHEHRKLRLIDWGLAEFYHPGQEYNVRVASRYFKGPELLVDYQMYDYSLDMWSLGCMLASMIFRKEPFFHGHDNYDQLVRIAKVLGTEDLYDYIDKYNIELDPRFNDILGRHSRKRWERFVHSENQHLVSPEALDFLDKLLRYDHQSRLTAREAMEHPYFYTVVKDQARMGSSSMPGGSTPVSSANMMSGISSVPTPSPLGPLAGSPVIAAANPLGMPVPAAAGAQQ

Row | SMILES | inhibition [1] [%] | inhibition [2] [%] | inhibition [3] [%] | inhibition [4] [%] | inhibition [5] [%] | inhibition [6] [%] | inhibition [7] [%] | inhibition [8] [%] | inhibition [9] [%] | inhibition [10] [%]
1 | NC(=O)CCc1ccccc1Oc1nccc(-c2c(-c3ccc(F)cc3)ncn2C2CCNCC2)n1 | 4.2 | 0.25 | 0.79 | 4.11 | -0.73 | 4.04 | 7.27 | -0.01 | -0.27 | -0.48
2 | Fc1ccc(Oc2nccc(-c3c(-c4ccc(F)cc4)ncn3C3CCNCC3)n2)cc1 | 3.61 | -1.08 | -1.86 | 6.48 | 2.41 | 4.61 | 5.03 | 5.79 | 6.38 | 6.92
3 | Fc1ccc(-c2ncn(C3CCNCC3)c2-c2ccnc(Oc3ccc(Cl)cc3)n2)cc1 | 0.16 | 1.2 | 0 | 2.72 | 0.7 | -5.26 | -0.06 |  | 0.18 | 3.89
4 | CC(C)(C)c1ccc(Oc2nccc(-c3c(-c4ccc(F)cc4)ncn3C3CCNCC3)n2)cc1 | 1.2 | 0 | 2.76 | 10.3 | 4.18 | 2.01 | -4.85 | 7.15 | 6.81 | 9.48
5 | Fc1ccc(-c2ncn(C3CCNCC3)c2-c2ccnc(Oc3cccc(C(F)(F)F)c3)n2)cc1 | -2.4 | -0.49 | -0.15 | 12 | 6.22 | 7.97 | 4.69 | 8.46 | 8.48 | 9.02
6 | COc1ccccc1C1=C(Nc2ccccc2)C(=O)NC1=O | -3.46 | 0.43 | 1.28 | 4.37 | 9.2 | -0.44 | 0.8 | 3.89 | 4.05 | 4.87
7 | COc1ccccc1Oc1nccc(-c2c(-c3ccc(F)cc3)ncn2C2CCNCC2)n1 | -2.01 | -0.64 | 0.85 | 3.37 | 5.8 | 3.94 | 5.41 | 6.53 | 6.59 | 
8 | O=C1NC(=O)C(c2cccc([N+](=O)[O-])c2)=C1Nc1cc(Cl)c(O)c(Cl)c1 | 0.61 | -2.47 | 1.43 | 9.34 | -1.15 | 0.56 | -1.55 | 5.43 | 4.99 | 7.81
9 | O=C(O)c1ccc(Oc2nccc(-c3c(-c4ccc(F)cc4)ncn3C3CCNCC3)n2)cc1 | 2.97 | -0.97 | -0.93 | 4.63 | 3.61 | 2.54 | 6.28 | 6.2 | 6.85 | 7.26
10 | Cc1cccc(Oc2nccc(-c3c(-c4ccc(F)cc4)ncn3C3CCNCC3)n2)c1C | 0.59 | 0.27 | 0.26 |  | 5.25 | -2.99 | 2.52 | 5.7 | 5.76 | 6.04
11 | O=C1NC(=O)C(c2ccccc2)=C1Nc1ccccc1 | -4.67 | 0.02 | -2.23 | 3.12 | 4.84 | 2.57 | 11.6 | 6.52 | 7.73 | 7.92
12 | CS(=O)(=O)c1ccc(Oc2nccc(-c3c(-c4ccc(F)cc4)ncn3C3CCNCC3)n2)cc1 | 0.83 | 0.29 | 4.56 | 3.58 | 1.78 | 6.95 | 5.81 | 6.21 | 6.56 | 5.78
13 | O=C1NC(=O)C(c2ccccc2Cl)=C1Nc1cc(Cl)c(O)c(Cl)c1 | -3.04 | -0.55 | -2 | 3 | 10.8 | 9.08 | 3.79 | 3.9 | 3.42 | 8.42
14 | Fc1ccc(-c2ncn(C3CCNCC3)c2-c2ccnc(Oc3cccc(F)c3)n2)cc1 | 0.83 | -1.23 | 0.67 | 6.47 | 8.56 | 6.65 | 10.1 | 5.25 | 7.12 | 6.5
